# This is one part of the list. The full chains were built here from the parent and the listed change. Values near 0.05 are background.
# B1: TEV protease; numbered along this chain (parent)
# chain: MGESLFKGPRDYNPISSSICHLTNESDGHTTSLYGIGFGPFIITNKHLFRRNNGTLVVQSLHGVFKVKDTTTLQQHLVDGRDMIIIRMPKDFPPFPQKLKFREPQREERICLVTTNFQTKSMSSMVSDTSCTFPSGDGIFWKHWIQTKDGQCGSPLVSTRDGFIVGIHSASNFTNTNNYFTSVPKNFMELLTNQEAQQWVSGWRLNADSVLWGGHKVFMVKPEEPFQPVKEATQL
# Variants of: B1
# Assay: raw area under fraction-flipped curve 0-4 h after induction (AUC4h, not background-subtracted), DNA-recorder readout of cleavage of the substrate (dimensionless); higher = more cleavage of the substrate by the protease variant
# Conditions: temperature: 34 °C; time window: 0-4 h after rhamnose induction
# 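Note: Bxb1 expression induced with 0.2% (w/v) L-rhamnose at OD600 near 0.5, cultures sampled hourly, flipped fraction per protease–substrate barcode pair counted by paired-end Illumina sequencing.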
Variant,area with substrate EDLYFQS,area with substrate EGLYFQS,area with substrate EILYFQS,area with substrate EVLYFQS,area with substrate EPLYFQS,area with substrate EYLYFQS,area with substrate EFLYFQS,area with substrate EHLYFQS,area with substrate EKLYFQS,area with substrate EMLYFQS
MGESLFKGPRDYNPISSSICHLTNESDGHTTSLYGIGFGPFIITNKHLFRRNNGTLVVQSLHGVFKVKDTTTLQQHLVDGRDMIIIRMPKDFPPFPQKLKFREPQREERICLVTTNFQTKSMSSMVSDTSCTFPSGDGIFWKHWIQTKDGQCGSPLVSTRDGFIVGIHSASNFTNTNNYFTSVPKNFMELLTNQEAQQWQSGWRLNADSVLWGGHKVFMVKPEEPFQPVKEATQL [V200Q],0.123,0.0727,0.09,0.0957,–,–,–,–,–,–
MGESLFKGPRDYNPISSSICHLTNESDGHTTSLYGIGFGPFIITNKHLFRRNNGTLVVQSLHGVFKVKDTTTLQQHLVDGRDMIIIRMPKDFPPFPQKLKFREPQREERICLVTTNFQTKSMSSMVSDTSCTFPSGDGIFWKHWIQTKDGQCGSPLVSTRDGFIVGEHSASNFTNTNNYFTSVPKNFMELLTNQEAQQWVSGWRLNADSVLWGGHKVFMVKPEEPFQPVKEATQL [I167E],0.0426,–,–,0.0402,0.0602,0.0538,–,–,–,–
MGESLFKGPRDYNPISSSICHLTNESDGHTTSLYGIGFGPFIITNKHLFRRNNGTLVVQSLHGVFKVKDTTTLQQHLVDGRDMIIIRMPKDFPPFPQKLKFREPQREERICLVTTNFQTKSMSSMVSDTSCTFPSGDGIFWKHWRQTKDGQCGSPLVSTRDGFIVGIHSASNFTNTNNYFTSVPKNFMELLTNQEAQQWVSGWRLNADSVLWGGHKVFMVKPEEPFQPVKEATQL [I145R],0.0674,–,–,0.0598,–,0.047,0.0472,0.0691,0.054,0.0755
MGESLFKGPRDYNPISSSICHLTNESDGHTTSLYGIGFGPFIITNKHLFRRNNGTLVVQSLHGVFKVKDTTTLQQHLVDGRDMIIIRMPKDFPPFPQKLKNREPQREERICLVTTNFQTKSMSSMVSDTSCTFPSGDGIFWKHWIQTKDGQCGSPLVSTRDGFIVGIHSASNFTNTNNYFTSVPKNFMELLTNQEAQQWVSGWRLNADSVLWGGHKVFMVKPEEPFQPVKEATQL [F101N],0.0455,0.0609,–,0.0415,–,–,–,–,–,0.029
MGESLFKGPRDYNPISSSICHLTNESDGHTTSLYGIGFGPFIITNKHLFRRNNGTLVVQSLHGVFKVKDTTTLQQHLVDGRDMIIIRMPKDFPPFPQKLKFREPQREERICLVTTNFQTKSMSSMVSDTSCTFPSGDGIFWKHWIQTKDGQCGSPLVSTRDGFIVGIHSASNFTNTNNYFTSVPKNFMELLTNQEAQQWVSGWRLNAHSVLWGGHKVFMVKPEEPFQPVKEATQL [D208H],0.0846,–,0.0644,0.103,–,–,–,–,–,–
MGESLFKGPRDYNPISSSICHLTNESDGHTTSLYGIGFGPFIITNKHLFRRNNGTLVVQSLHGVFKVKDTTTLQQHLVDGRDMIIIRMPKDFPPFPQKLKFREPQREERICLVTTNFQTKSMSSMVSDTRCTFPSGDGIFWKHWIQTKDGQCGSPLVSTRDGFIVGIHSASNFTNTNNYFTSVPKNFMELLTNQEAQQWVSGWRLNADSVLWGGHKVFMVKPEEPFQPVKEATQL [S130R],0.117,0.0827,0.064,–,–,–,–,–,0.0893,0.0827
MGESLFKGPRDYNPISSSICHLTNESDGHTTSLYGIGFGPFIITNKHLFRRNNGTLVVQSLHGVFKVKDTTTLQQHLVDGRDMIIIRMPKDFPPFPQKLKFREPQREERICLVTTNFQTKSMSSMVSDTSCTFPSGDGIFWKHWIQTKDGQCGSPLVSTRDGFIVGIHSASNFTNTNNYFTSVPKNFMELLTNQEAQQWKSGWRLNADSVLWGGHKVFMVKPEEPFQPVKEATQL [V200K],0.0775,–,0.0752,–,–,–,0.0572,–,–,0.0958
MGESLFKGPRDYNPISSSICHLTNESDGHTTSLYGIGFGPFIITNKHLFRRNNGTLVVQSLHGVFKVKDTTTLQQHLVDGRDMIIIRMPKDFPPFPQKLKFREPQREERICLVTTNFQTKSMSSMVSDTSCTFPSGDGIFWKHWIQTKDGQCGSPLVSTRDGFIVGIHSASNFTNTNNYFTSVPKNFMELLTNQEAQQWVSKWRLNADSVLWGGHKVFMVKPEEPFQPVKEATQL [G202K],0.0938,–,0.0975,0.0653,0.0872,–,–,0.0797,–,–
MGESLFKGPRDYNPISSSICHLTNESDGHTTSLYEIGFGPFIITNKHLFRRNNGTLVVQSLHGVFKVKDTTTLQQHLVDGRDMIIIRMPKDFPPFPQKLKFREPQREERICLVTTNFQTKSMSSMVSDTSCTFPSGDGIFWKHWIQTKDGQCGSPLVSTRDGFIVGIHSASNFTNTNNYFTSVPKNFMELLTNQEAQQWVSGWRLNADSVLWGGHKVFMVKPEEPFQPVKEATQL [G35E],0.0511,0.0242,–,–,–,–,–,–,0.0386,–
MGESLFKGPRDYNPISSSICHLTNESDGHTTSLYGIGFGPFIITNKHLFRRNNGTLVVQSLHGHFKVKDTTTLQQHLVDGRDMIIIRMPKDFPPFPQKLKFREPQREERICLVTTNFQTKSMSSMVSDTSCTFPSGDGIFWKHWIQTKDGQCGSPLVSTRDGFIVGIHSASNFTNTNNYFTSVPKNFMELLTNQEAQQWVSGWRLNADSVLWGGHKVFMVKPEEPFQPVKEATQL [V64H],0.102,–,–,–,–,–,–,–,–,–
MGESLFKGPRDYNPISSSICHLTNESDGHTTSLYGIGFGPFIITNKHLFRRNNGTLVVQSLHGVFKVKDTTTLQQHLVDGRDMIIIRMPKDFPPFPQKLKFREPQREERICLVTTNFQTKSMSSMVSDTSCTFPSGDGIFWKHWIQTKDGQCGSPLVSTRDGFIVGIHSASNFTNTNNYFTSVPKNFMELLTNQEAQQWVSGWRVNADSVLWGGHKVFMVKPEEPFQPVKEATQL [L205V],0.103,0.0824,–,–,–,–,–,–,–,–
MGESLFKGPRDYNPISSSICHLTNESDGHTTSLYGIGFGPFIITNKHLFRRNNGTLVVQSLHGVFKVKDTTTLQQHLVDGRDMIIIRMPKDFPPFPQKLKFREPQREERECLVTTNFQTKSMSSMVSDTSCTFPSGDGIFWKHWIQTKDGQCGSPLVSTRDGFIVGIHSASNFTNTNNYFTSVPKNFMELLTNQEAQQWVSGWRLNADSVLWGGHKVFMVKPEEPFQPVKEATQL [I110E],0.0272,–,–,–,0.0513,0.0532,–,–,–,–

# Same assay, conditions: temperature: 34 °C; time window: 0-4 h after rhamnose induction
Variant,area with substrate ERLYFQS,area with substrate ESLYFQS,area with substrate ETLYFQS,area with substrate EQLYFQS,area with substrate EELYFQS,area with substrate ELLYFQS,area with substrate EWLYFQS
MGESLFKGPRDYNPISSSICHLTNESDGHTTSLYGIGFGPFIITNKHLFRRNNGTLVVQSLHGVFKVKDTTTLQQHLVDGRDMIIIRMPKDFPPFPQKLKFREPQREERICLVTTNFQTKSMSSMVSDTSCTFPSGDGIFWKHWRQTKDGQCGSPLVSTRDGFIVGIHSASNFTNTNNYFTSVPKNFMELLTNQEAQQWVSGWRLNADSVLWGGHKVFMVKPEEPFQPVKEATQL [I145R],0.0668,0.0556,0.0525,–,–,–,–
MGESLFKGPRDYNPISSSICHLTNESDGHTTSLYGIGFGPFIITNKHLFRRNNGTLVVQSLHGVFKVKDTTTLQQHLVDGRDMIIIRMPKDFPPFPQKLKNREPQREERICLVTTNFQTKSMSSMVSDTSCTFPSGDGIFWKHWIQTKDGQCGSPLVSTRDGFIVGIHSASNFTNTNNYFTSVPKNFMELLTNQEAQQWVSGWRLNADSVLWGGHKVFMVKPEEPFQPVKEATQL [F101N],0.0469,0.0437,–,0.0474,–,–,–
MGESLFKGPRDYNPISSSICHLTNESDGHTTSLYGIGFGPFIITNKHLFRRNNGTLVVQSLHGVFKVKDTTTLQQHLVDGRDMIIIRMPKDFPPFPQKLKFREPQREERICLVTTNFQTKSMSSMVSDTSCTFPSGDGIFWKHWIQTKDGQCGSPLVSTRDGFIVGIHSASNFTNTNNYFTSVPKNFMELLTNQEAQQWVSGWRLNAHSVLWGGHKVFMVKPEEPFQPVKEATQL [D208H],0.0822,0.104,–,0.132,–,–,–
MGESLFKGPRDYNPISSSICHLTNESDGHTTSLYGIGFGPFIITNKHLFRRNNGTLVVQSLHGVFKVKDTTTLQQHLVDGRDMIIIRMPKDFPPFPQKLKFREPQREERICLVTTNFQTKSMSSMVSDTRCTFPSGDGIFWKHWIQTKDGQCGSPLVSTRDGFIVGIHSASNFTNTNNYFTSVPKNFMELLTNQEAQQWVSGWRLNADSVLWGGHKVFMVKPEEPFQPVKEATQL [S130R],0.0864,0.071,–,–,0.124,0.0693,0.0789
MGESLFKGPRDYNPISSSICHLTNESDGHTTSLYGIGFGPFIITNKHLFRRNNGTLVVQSLHGVFKVKDTTTLQQHLVDGRDMIIIRMPKDFPPFPQKLKFREPQREERICLVTTNFQTKSMSSMVSDTSCTFPSGDGIFWKHWIQTKDGQCGSPLVSTRDGFIVGIHSASNFTNTNNYFTSVPKNFMELLTNQEAQQWKSGWRLNADSVLWGGHKVFMVKPEEPFQPVKEATQL [V200K],0.0838,0.0796,–,0.0771,–,–,–
MGESLFKGPRDYNPISSSICHLTNESDGHTTSLYGIGFGPFIITNKHLFRRNNGTLVVQSLHGVFKVKDTTTLQQHLVDGRDMIIIRMPKDFPPFPQKLKFREPQREERICLVTTNFQTKSMSSMVSDTSCTFPSGDGIFWKHWIQTKDGQCGSPLVSTRDGFIVGIHSASNFTNTNNYFTSVPKNFMELLTNQEAQQWVSKWRLNADSVLWGGHKVFMVKPEEPFQPVKEATQL [G202K],0.0794,0.0872,0.084,–,–,–,–
MGESLFKGPRDYNPISSSICHLTNESDGHTTSLYEIGFGPFIITNKHLFRRNNGTLVVQSLHGVFKVKDTTTLQQHLVDGRDMIIIRMPKDFPPFPQKLKFREPQREERICLVTTNFQTKSMSSMVSDTSCTFPSGDGIFWKHWIQTKDGQCGSPLVSTRDGFIVGIHSASNFTNTNNYFTSVPKNFMELLTNQEAQQWVSGWRLNADSVLWGGHKVFMVKPEEPFQPVKEATQL [G35E],–,0.0444,–,–,0.036,–,0.0066
MGESLFKGPRDYNPISSSICHLTNESDGHTTSLYGIGFGPFIITNKHLFRRNNGTLVVQSLHGHFKVKDTTTLQQHLVDGRDMIIIRMPKDFPPFPQKLKFREPQREERICLVTTNFQTKSMSSMVSDTSCTFPSGDGIFWKHWIQTKDGQCGSPLVSTRDGFIVGIHSASNFTNTNNYFTSVPKNFMELLTNQEAQQWVSGWRLNADSVLWGGHKVFMVKPEEPFQPVKEATQL [V64H],–,0.131,–,–,–,–,–
MGESLFKGPRDYNPISSSICHLTNESDGHTTSLYGIGFGPFIITNKHLFRRNNGTLVVQSLHGVFKVKDTTTLQQHLVDGRDMIIIRMPKDFPPFPQKLKFREPQREERICLVTTNFQTKSMSSMVSDTSCTFPSGDGIFWKHWIQTKDGQCGSPLVSTRDGFIVGIHSASNFTNTNNYFTSVPKNFMELLTNQEAQQWVSGWRVNADSVLWGGHKVFMVKPEEPFQPVKEATQL [L205V],–,–,–,–,–,–,0.0489
MGESLFKGPRDYNPISSSICHLTNESDGHTTSLYGIGFGPFIITNKHLFRRNNGTLVVQSLHGVFKVKDTTTLQQHLVDGRDMIIIRMPKDFPPFPQKLKFREPQREERECLVTTNFQTKSMSSMVSDTSCTFPSGDGIFWKHWIQTKDGQCGSPLVSTRDGFIVGIHSASNFTNTNNYFTSVPKNFMELLTNQEAQQWVSGWRLNADSVLWGGHKVFMVKPEEPFQPVKEATQL [I110E],–,0.0375,–,–,0.0438,–,0.0482

# Source: the supplement of paper PMC12217912
